Test results from article PMC4336329 (PLoS ONE, 2015).
The campaign covered roughly 310,000 compounds. About 2,200 (0.71%) showed an effect of 50% or more. The effect is printed as a negative number. This is one part of the list.

target: human ether-à-go-go-related gene (hERG) potassium channel (human, UniProt Q12809); assay: primary screen, population patch clamp on CHO cells stably expressing hERG
Sequence (Q12809 whole entry, looked up): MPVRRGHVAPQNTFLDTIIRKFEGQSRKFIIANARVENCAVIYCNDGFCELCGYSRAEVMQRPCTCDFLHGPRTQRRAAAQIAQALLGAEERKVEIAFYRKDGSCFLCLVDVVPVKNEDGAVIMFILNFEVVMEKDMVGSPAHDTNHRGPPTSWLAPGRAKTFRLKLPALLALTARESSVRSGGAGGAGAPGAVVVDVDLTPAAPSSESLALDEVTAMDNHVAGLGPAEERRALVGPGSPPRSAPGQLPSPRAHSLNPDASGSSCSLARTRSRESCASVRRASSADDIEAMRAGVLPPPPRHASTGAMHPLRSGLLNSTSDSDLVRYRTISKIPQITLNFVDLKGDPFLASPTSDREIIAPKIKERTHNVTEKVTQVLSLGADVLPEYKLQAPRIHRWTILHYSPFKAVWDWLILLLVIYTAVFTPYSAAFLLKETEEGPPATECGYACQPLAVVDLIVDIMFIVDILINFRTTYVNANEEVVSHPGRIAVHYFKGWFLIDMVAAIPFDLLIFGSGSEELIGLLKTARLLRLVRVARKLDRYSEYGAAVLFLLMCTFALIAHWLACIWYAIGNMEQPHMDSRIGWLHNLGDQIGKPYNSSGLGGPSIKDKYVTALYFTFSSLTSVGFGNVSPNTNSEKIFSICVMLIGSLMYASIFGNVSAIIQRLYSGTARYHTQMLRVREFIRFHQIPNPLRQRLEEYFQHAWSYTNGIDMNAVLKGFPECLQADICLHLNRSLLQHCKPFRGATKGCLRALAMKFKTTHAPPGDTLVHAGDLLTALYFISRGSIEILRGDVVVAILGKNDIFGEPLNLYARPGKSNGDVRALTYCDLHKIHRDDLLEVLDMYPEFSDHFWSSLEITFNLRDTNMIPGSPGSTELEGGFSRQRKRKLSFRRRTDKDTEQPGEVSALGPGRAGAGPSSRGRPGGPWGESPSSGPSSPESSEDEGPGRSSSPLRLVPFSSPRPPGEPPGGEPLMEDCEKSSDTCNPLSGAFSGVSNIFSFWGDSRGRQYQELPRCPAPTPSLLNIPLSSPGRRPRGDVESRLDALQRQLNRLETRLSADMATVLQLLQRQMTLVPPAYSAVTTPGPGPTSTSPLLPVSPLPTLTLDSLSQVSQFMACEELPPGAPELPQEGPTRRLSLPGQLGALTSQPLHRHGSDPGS

Structure (SMILES)	hERG current change (%, negative = inhibition) at 1uM
CC1CCCN(CCSc2ccc(Cl)cc2)C1.O=C(O)C(=O)O (stereo not shown)	2.16%
CCCCCn1c(N2CCC(Cc3ccccc3)CC2)nc2c1c(=O)[nH]c(=O)n2C	11.2%
CCOCCCNC(=O)C(c1ccccc1)N(Cc1cccs1)C(=O)CNC(=O)c1ccccc1 (stereo not shown)	5.39%
CC(=O)Nc1c(O)nc(SC/C=C/CSc2nc(O)c(NC(C)=O)c(=O)[nH]2)[nH]c1=O	4.69%
CCCCOc1ccc(-c2nnc(N)s2)cc1	9.39%
Cc1cc(=O)oc2cc(OCC(=O)c3ccc4c(c3)NC(=O)CO4)ccc12	13.7%
Cc1ccc(N2C(=O)CC(Sc3ncn[nH]3)C2=O)cc1C (stereo not shown)	11.4%
COc1cc(/C=C/C(=O)OC2CC3CCC2(C)C3(C)C)ccc1O (stereo not shown)	10.8%
Cc1ccccc1C1(CCN2CCCCC2)CCOC(C)(C)C1.Cl (stereo not shown)	13%
Cc1[nH]c2ccc(F)cc2c1CCN(Cc1ccncc1)C(=S)Nc1ccccc1	-2.27%
Clc1ccc(C2=NNC(=NCc3ccccc3)SC2)cc1	4.07%
CC(=O)Nc1cccc(-c2nc3ccccc3o2)c1	18.9%
Cc1c(NC(=O)C2(c3ccc(Cl)cc3)CCCC2)c(=O)n(-c2ccccc2)n1C	-18.6%
Cc1ccc(NC(=O)C(=O)NCc2ccncc2)cc1	16%
Cc1cc(C)nc(SCC(N)=O)n1	11.8%
OC(CN1CCOCC1)Cn1cnc2ccccc21 (stereo not shown)	15.4%
COc1ccc(-c2csc3ncnc(N4CCN(c5ccccc5OC)CC4)c23)cc1	9.85%
CCN1CCN(c2ccc(S(=O)(=O)N3CCCCC3)cc2NC(=O)Cc2ccc(Cl)c(Cl)c2)CC1	-8.07%
CCOc1ccccc1Nc1ccc(C(=O)O)cc1NC(C)=O	20.2%
COC(=O)CSc1nnc(-c2ccc(S(=O)(=O)N3CCCCC3)cc2)o1	13.1%
Cc1cc2ncn(C3CC(=O)N(Cc4ccc(N5CCCC5=O)cc4)C3=O)c2cc1C (stereo not shown)	0.881%
Cc1ccc(-c2n[nH]c3c2C(c2cccc(O)c2)N(c2ccc(C(=O)O)cc2)C3=O)cc1 (stereo not shown)	11.1%
Cn1c(N)c(C(=O)COC(=O)c2cccs2)c(=O)n(C)c1=O	5.16%
COc1ccc(NC(=O)N2CCN(c3cccc(C(F)(F)F)c3)CC2)cc1OC	8.5%
COC(=O)CSc1nc2ccc(NC(=O)CSc3nnnn3Cc3ccccc3)cc2s1	31.4%
